From PubChem BioAssay AID1468 (National Center for Advancing Translational Sciences (NCATS), 2008)
In all, about 280,000 compounds went through this assay and about 1,100 (0.39%) were called active. This list was built around the results that the source calls inconclusive (neither active nor inactive); the mix of calls is not that of the screen. Calls follow the shape of the dose curve; as a rule, active = well fitted inhibition curve with a large enough effect; inconclusive = small, poorly fitted or top-dose-only effect, or effect the other way; inactive = flat fitted curve, though single readings scatter. No potency is given beside an inconclusive call; the fits are too rough.

These compounds were tested against Microtubule-associated protein tau (Homo sapiens) (UniProt P10636) (assay: qHTS for Inhibitors of Tau Fibril Formation, Fluorescence Polarization). Details: K18 P301L tau heparin fibrillization, Alexa594 FP, 6 h; series mostly up to 57.7 µM; activity, negative = inhibition: at the top concentration.
Procedure, shortened: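 Steps: dispense K18 P301L tau (15 uM plus 0.24 uM Alexa 594 tracer, final) in pH 7 sodium acetate; add compound; add heparin (20 uM final); incubate 6 hr, 37 C; add ThT (30 uM final); after 1 hr ambient, read FP.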
% is scaled to controls: 0 for no effect and ±100 for the full control effect; potency is read from the fitted curve at half-maximal effect; tags tell the direction and shape of the fitted curve.
Also: nearly all actives have a fitted effect of over 55% in size.

UniProt P10636, sequence (P10636 whole entry, looked up): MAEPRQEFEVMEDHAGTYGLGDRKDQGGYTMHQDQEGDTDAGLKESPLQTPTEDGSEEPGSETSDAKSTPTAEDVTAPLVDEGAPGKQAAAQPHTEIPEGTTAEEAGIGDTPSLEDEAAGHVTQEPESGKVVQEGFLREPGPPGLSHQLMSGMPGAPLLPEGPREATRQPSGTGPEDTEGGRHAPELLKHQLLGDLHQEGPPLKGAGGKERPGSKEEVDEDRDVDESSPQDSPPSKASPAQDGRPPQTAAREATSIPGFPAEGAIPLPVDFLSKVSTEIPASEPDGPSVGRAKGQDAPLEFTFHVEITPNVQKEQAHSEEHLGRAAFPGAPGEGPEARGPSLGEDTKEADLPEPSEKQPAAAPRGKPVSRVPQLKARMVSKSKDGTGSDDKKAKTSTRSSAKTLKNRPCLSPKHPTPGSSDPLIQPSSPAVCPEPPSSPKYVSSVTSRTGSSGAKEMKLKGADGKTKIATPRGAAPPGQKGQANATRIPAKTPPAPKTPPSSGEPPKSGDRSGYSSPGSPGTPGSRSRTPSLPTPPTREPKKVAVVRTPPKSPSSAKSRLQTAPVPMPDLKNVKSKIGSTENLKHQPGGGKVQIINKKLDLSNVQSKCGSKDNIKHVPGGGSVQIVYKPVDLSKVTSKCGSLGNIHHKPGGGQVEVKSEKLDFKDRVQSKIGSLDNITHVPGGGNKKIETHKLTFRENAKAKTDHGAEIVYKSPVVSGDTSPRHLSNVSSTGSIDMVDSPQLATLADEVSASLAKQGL

Row | Compound | Potency | activity, negative = inhibition
1 | Nc1ccccc1Nc1cc(-c2cccc(Cl)c2)nn1-c1ccccc1 | inconclusive [activator, partial curve] | 
2 | CN(Cc1ccccc1)c1nc(-c2ccc(F)cc2)cc(C(F)(F)F)n1 | inconclusive [inhibitor, single point] | 
3 | CCC(Oc1ccccc1F)C(=O)Nc1c(C(=O)c2ccccc2)oc2ccccc12 (centres undefined) | inconclusive [inhibitor, partial curve, poor fit] | 
4 | CC1=C(C)C(=O)C(CCCCC#CCCCC#CCO)=C(C)C1=O | inconclusive [inhibitor, single point] | 
5 | O=C(O)c1cc(-c2ccccc2)n(-c2ccccc2C(=O)O)n1 | inconclusive [inhibitor, partial curve, poor fit] | 
6 | COc1cccc(=O)c2c(C)n(-c3cc(C)cc(C)c3)c(C)c12 | inconclusive [inhibitor, partial curve] | 
7 | CCCCc1nn2c(=O)cc(COC(=O)c3ccccc3NC(=O)C(C)(C)C)nc2s1 | inconclusive [inhibitor, single point] | 
8 | CCOc1ccc(NC(=O)CN2C(=O)COc3ccc(S(=O)(=O)Nc4ccccc4)cc32)cc1 | inconclusive [inhibitor, single point] | 
9 | Cc1ccc(C(=O)c2coc3ccc(OCC(=O)O)cc23)cc1 |  | inactive: -2.31%
10 | O=C(NNc1ncnc2c1cnn2-c1ccccc1)c1cccc(Cl)c1 | inconclusive [inhibitor, single point] | 
11 | Cc1ccc(-c2cc(C(=O)N/N=C/c3c[nH]c4ccccc34)n[nH]2)o1 | inconclusive [activator, single point] | 
12 | CCOc1cc(N2CCOCC2)c(OCC)cc1NC(=O)CSc1ncccn1 |  | inactive: 4.09%
13 | O=C(NC(=S)Nc1cccc([N+](=O)[O-])c1)c1ccccc1 | inconclusive [inhibitor, single point] | 
14 | Cc1nc(NCc2ccco2)c2c(C)c(C)sc2n1 |  | inactive: -4.38%
15 | CC(=O)Nc1ccc(C2=NNC(=Nc3ccc(S(=O)(=O)N4CCOCC4)cc3)SC2)cc1 | inconclusive [inhibitor, partial curve] | 
16 | O=C(CSCc1ccccc1)N/N=C/c1ccccc1OCc1ccccc1 | inconclusive [inhibitor, single point] | 
17 | O=[N+]([O-])c1ccc2nc(-c3ccccn3)[nH]c2c1 | inconclusive [inhibitor, single point] | 
18 | O=C(Sc1cccc2cccnc12)c1ccc(F)cc1 | inconclusive [inhibitor, single point] | 
19 | O=c1oc2cc(Cl)ccc2n1CSc1nc2ccccc2s1 | inconclusive [inhibitor, partial curve] | 
20 | Cc1nnc(SCC(=O)N/N=C/c2cn(-c3ccccc3)nc2-c2ccc(F)cc2)n1-c1ccccc1 | inconclusive [inhibitor, partial curve] | 
21 | O=C(Nc1ccc(Cl)cc1)Nc1nnc(CSCc2ccc(Cl)cc2)s1 | inconclusive [inhibitor, full curve] | 
22 | COc1cc(C=O)ccc1Oc1cnccn1 | inconclusive [inhibitor, single point] | 

Row | Compound | Potency | activity, negative = inhibition
23 | NNc1nc(Nc2ccccc2)nc(Nc2ccccc2)n1 | inconclusive [inhibitor, single point] | 
24 | CN1CCN(C(=S)NC(=O)c2ccc(S(=O)(=O)N3CCOCC3)cc2)CC1 |  | inactive: -2.21%
25 | COc1cccc(-c2coc3ccc(Br)cc3c2=O)c1 |  | inactive: 6.88%
26 | CCn1cc(/C=C/C(=O)Nc2ccn(Cc3c(F)c(F)cc(F)c3F)n2)cn1 | inconclusive [inhibitor, partial curve] | 
27 | CC1(C)CC2CC(C)(CN2C(=O)c2cc(-c3ccccc3O)on2)C1 (centres undefined) | inconclusive [inhibitor, single point] | 
28 | Cc1ccc2nc(C(Cl)(Cl)Cl)nc(N/N=C/c3ccncc3)c2c1 | inconclusive [inhibitor, partial curve, poor fit] | 
29 | COC(=O)CCC(=O)OC1(C)C(=O)C2=CN(C(CO)CO)C(c3ccc(OC)cc3)=CC2=C(Br)C1=O (centres undefined) | inconclusive [inhibitor, full curve] | 
30 | CN(CC(=O)NCCC1=CCCCC1)S(=O)(=O)c1ccc2c(c1)c(=O)n(C)c(=O)n2C | inconclusive [inhibitor, full curve, poor fit] | 
31 | COc1ccc(S(=O)(=O)N2CCN(c3ccccc3F)CC2)cc1-c1noc(C)n1 | inconclusive [inhibitor, partial curve] | 
32 | COc1cccc(NC(=O)C2C3CCC4C(CCC32)C4(Cl)Cl)c1 (centres undefined) |  | inactive: -4.8%
33 | CC(C(=O)N1CCOCC1)c1ccc([N+](=O)[O-])cc1 (centres undefined) | inconclusive [activator, single point] | 
34 | N#Cc1cc2ccc(N3CCOCC3)cc2cc1C#N |  | inactive: -13%
35 | CC(C)C[C@H](NC(=O)c1nc[nH]c1C(=O)N[C@@H](CCCCNC(=O)OC(C)(C)C)C(=O)OC(C)(C)C)C(=O)OC(C)(C)C |  | inactive: -13.4%
36 | CCOc1ccc(-c2cc(NC(=O)Nc3cccc(C(C)=O)c3)c(C(=O)OC)s2)cc1 |  | inactive: -10.2%
37 | CCOC(=O)CNC(c1ccccc1)c1cc(Br)ccc1NC(=O)CCN1CCOCC1 (centres undefined) |  | inactive: -1%
38 | Oc1ccc(NCc2cccc(OCc3ccccc3)c2)cc1 | inconclusive [inhibitor, single point] | 
39 | CCCCOc1[nH]c2nc(-c3ccco3)n(Cc3ccco3)c(=N)c2c1C#N |  | inactive: -11.1%
40 | CCOC(=O)CSc1nc2ccc(NC(=O)c3ccc(C)cc3)cc2s1 | inconclusive [inhibitor, single point] | 
41 | COc1ccccc1-c1nc(NCc2ccccc2)c2ccccc2n1 |  | inactive: -1.18%
42 | CCN1CCSc2ccc(C(=O)NC(C)c3ccccc3)cc21 (centres undefined) |  | inactive: 2.84%
43 | CN(C)Cc1cc(C(C)(C)c2cc(CN(C)C)c(O)c(CN(C)C)c2)cc(CN(C)C)c1O |  | inactive: 4.76%
44 | Cc1ccc(CNC(=O)Cn2nc(C)n3cccc3c2=O)cc1 | inconclusive [inhibitor, partial curve] | 
